Source: the supplement of paper PMC4466236
The full ranking holds about 33,000 sequences; the median of “E-score (dimensionless, -0.5 to 0.5)” is about -0.058, and the highest 2% start at about 0.35. The list shows a part of the results.

Tested on: MvaT
Test: PBM 8-mer E-score (mean of HK and ME arrays) (E-score (dimensionless, -0.5 to 0.5)); higher = stronger relative binding preference; most listed sequences are background and not binding sites
Summary of the method: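 Full-length P. aeruginosa MvaT, with glutathione S-transferase fused to its N-terminus (cloned into pTH6838 by isothermal assembly), was tested by protein binding microarray using a previously described protocol. Two universal double-stranded 60-mer arrays (ME and HK) were used, each with a constant 25-mer primer region and a variable 35-mer region covering all 8-mers. The rank-based 8-mer E-score (-0.5 to 0.5) is the mean of the two arrays, parsed with a custom Python script.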

Sequence	PBM 8-mer E-score
GTCTTCGA	-0.0711
ACCTGTGC	-0.145
GGTTGCTA	-0.00872
AGAACACT	0.0433
GCGTCATA	-0.0624
CTACCAAA	-0.0327
TCTCCAGA	-0.1
AAGAGTGA	0.00575
CTCCCAAC	-0.108
ACTCAGCA	-0.0592
CTCGTCGC	-0.208
AGGTCAAA	0.0141
GACTGGGA	-0.0592
ATAGCGAG	-0.0175
GACAGGGC	-0.226
ACCCTGCT	-0.2
CGTCGACA	-0.0858
GACAAGCC	-0.248
ACTCTCAG	-0.306
CCATGAGC	-0.162
CTCCGAAC	-0.208
ATGTGTTG	0.0944
CCGGAAAC	-0.137
GGTCAGAA	0.0193
GGAATTAA	0.347

Sequence	PBM 8-mer E-score
CATACAAG	0.161
AGGCTTGG	-0.273
AACCCGCA	0.0923
ACATAGTC	0.172
GAGTCGAC	-0.185
AGAAAGTC	0.145
ATAAATCG	0.255
ACTCATCC	0.0413
GCTACGAA	-0.148
ATGATTGG	-0.0765
AAACAGCC	-0.152
AGCCTGAC	-0.123
GCATGTAA	0.203
ATCAGGCA	-0.0666
ACCTCTCT	-0.125
AAAGCGTA	-0.0749
GCACGATA	0.0507
ACTAAAGC	-0.00643
GACCCACC	-0.106
GATACCCA	-0.0407
AACGCTCC	-0.0685
CAATCTGG	-0.0215
TAGATCAA	0.0579
CACATTAA	0.305
AAAGTGAT	0.155

Sequence	PBM 8-mer E-score
CCCCATGA	-0.118
GGACTCCA	-0.112
AGAAAACG	-0.00536
ACCATCCA	0.022
CCATCAAG	-0.184
AGCGTTCA	-0.188
GGCAAACC	-0.0556
TAACCTCA	0.0481
AGCTATGA	-0.0805
AAATCTGA	0.186
CATCGGAC	-0.146
GCGGTGAA	0.0808
CCTGGGCA	-0.253
ATTAAGCG	0.288
ACGTCTAT	0.096
CGTCCGGA	-0.159
CACGTATA	0.259
CATACCTC	-0.0525
TCGCTAAA	0.062
CACTCACA	0.0194
AGGTCCAT	-0.144
ACTGTTCA	0.0498
CACCGTCC	-0.0556
AATCGCCG	-0.0177
GCCGGTGA	-0.205

Sequence	PBM 8-mer E-score
CGATATCA	0.106
AGGCCGCA	-0.186
ATTATATA	0.47
CCGACACA	0.0805
AGATAAAA	0.178
AATTTCGT	0.157
AGTAACGA	0.137
GACACATA	0.198
AGGAACTC	-0.261
CGCTTGAG	-0.194
AAGCGACA	-0.0634
AAGGTAGT	0.0611
AACGCAGC	-0.111
GTATCCAA	-0.0284
GAATTCAC	0.086
ATTGACAG	0.14
GAAAGTCC	-0.0159
CACCGGAA	-0.0701
CCATGTGA	-0.122
AAATTAGA	0.191
TCCAATCA	-0.187
CTCGTTGA	-0.156
ACCTTTGA	-0.0994
CAGCCGCA	-0.0978
ATCCTCAA	0.054

Sequence	PBM 8-mer E-score
GCAATCGA	-0.0801
ACGTCATG	-0.11
ATTACGCG	0.0807
CGGGTAAC	-0.064
ACCAGCGA	-0.0283
CTGCACAG	-0.113
CACACCAG	-0.111
ACGACGCA	-0.191
AATCCCCA	-0.152
GGGAAGAC	-0.212
TAGCTAAA	0.105
AGGGATGG	-0.241
AGTTTTGC	0.0704
CGGACTAA	0.137
AGTAGCCC	-0.193
CGCAGTTC	-0.0668
CCACTAAG	0.145
AGTGGCAT	-0.0927
GCGAAGCA	-0.256
GGTACTAC	-0.167
CTTCGGGC	-0.194
CACCGATG	-0.205
CCCGATTA	0.0691
AGGACTGC	-0.226
AGACTCAG	-0.191

Sequence	PBM 8-mer E-score
AGATTTTA	0.211
TATTGGGA	0.139
GGAGGACC	-0.423
GCGTTGTA	0.0698
CTAGCCAC	-0.0783
CCATGAAA	0.0879
ACGGATCT	-0.149
GTATTCGA	0.101
GTGGGCGA	-0.144
ACTAGTAT	0.357
CAGAGGAC	-0.198
ATAGAACC	0.0137
ACAGACCA	0.0186
CCGGAGAC	-0.175
ACAAGGGT	-0.0998
CTGACCGC	-0.252
AAGGATAG	-0.0902
TCATAGGA	-0.0968
ACATGGGT	-0.168
GGAACTCA	-0.0926
TCATGGAA	0.0365
AGTAGCAC	0.0248
ACGTTAGG	0.001
ACGAACGC	-0.117
AGCTACGC	-0.246

Sequence	PBM 8-mer E-score
TAAAGAAA	0.182
CTTCTCTC	-0.128
CTTAGCTA	0.0437
ACGCCTCG	-0.166
CGCGGATA	0.125
GGTAGTCA	-0.169
ATCACCAG	-0.0845
ACTGAAAA	0.15
ACAGCTCG	-0.0961
GACCTTCA	-0.12
CGACTGCC	-0.236
ATTAAACG	0.284
CTAGTAAA	0.0929
ACAGGCGA	-0.0735
AAAGTCGT	0.155
AAGCGGCT	-0.196
ATCCCAAC	0.0284
CAAAACTG	-0.0206
CTATCGTC	-0.143
CTGGCTTC	-0.179
ACGAAAAC	0.09
TAGCGCTA	-0.00506
